In patent US20250145722A1, “ANTI-GAL3 ANTIBODIES AND METHODS OF USE” (TrueBinding, Inc., priority 2020, published 2025):

Columns and labels:
Human Gal3 peptides [1] = biological target: T1, Human Gal3 peptides (Homo sapiens, UniProt P17931); experiment: Gal3 peptide library binding ELISA; conditions: antibodies 5 μg/mL
T1 construct: purchased LifeTein custom order; host or cells: synthetic peptides
Experimental: (§1) To identify the epitopes to which Gal3 antibodies with and without Gal3-APP695 blocking activity bound, a library of 20 amino acid peptides representing portions of Gal3, summarized in FIG. 17 (SEQ ID NOs: 3-26), was produced and the ability to bind Gal3 antibodies was evaluated by ELISA.
(§2) Human Gal3 peptides (LifeTein, custom order) and human Gal3 proteins (R&D Systems, 8259-GA; TrueBinding, QCB200349) were diluted in PBS (Corning, 21-030-CM) to concentrations of at least 100 μg/mL (peptides) or 1 μg/mL (proteins), and added to the wells of several 96-well ELISA plates (Thermo Fisher, 44-2404-21). After incubating the plates at 4° C. overnight, the plates were washed three times with PBST (PBS with 0.05% Tween 20 [VWR, 0777]). The plates were then blocked for an hour with 2% BSA (EMD Millipore, 126609) in PBST at room temperature with gentle rocking. Thereafter, the 2% BSA in PBST was discarded and Gal3-binding antibodies (reformatted hIgG4 [S228P]) were diluted in 2% BSA in PBST to concentrations of 5 μg/mL and added to the wells. The plates were incubated for an hour at room temperature with gentle rocking and then washed three times with PBST. Afterwards, Peroxidase AffiniPure F(ab′)2 Fragment Goat Anti-Human IgG (H+L) polyclonal antibody (Jackson ImmunoResearch, 109-036-003), was diluted in 2% BSA in PBST (1:4000) and added to the wells. The plates were incubated for 1 hour at room temperature with gentle rocking and then washed three times with PBST. TMB substrate (Thermo Scientific, 34029) was then added to each well. The reaction was stopped with 1M HCl (JT Baker, 5620-02) and read using a plate reader (Molecular Devices) at absorbance of 450 nm.

Human Gal3 peptides [2] = experiment: Gal3 peptide library binding ELISA; conditions: antibodies 5 μg/mL
Experimental: as §1, §2

B1: F849C.8D10: anti-Gal3 antibody (antibody)
heavy: QVQLQQTGAELVKPGASVKLSCKASGYTFTSYWINWVKQRPGQGLEWIGNIYPGSSSIYYSEKFKSKATLTVDTSSSTAYMQLSSLTSDDSAVYYCARWGYWGQGTTLTVSSASTKGPSVFPLAPCSRSTSESTAALGCLVKDYFPEPVTVSWNSGALTSGVHTFPAVLQSSGLYSLSSVVTVPSSSLGTKTYTCNVDHKPSNTKVDKRV[letters of human IgG4 Fc with S228P (EU numbers) omitted]
light: DVLMTQTPLSLPVSLGDQASISCRSSQDIVHSSGNTYLEWYLQKPGQSLKLLIYKVSNRFSGVPDRFSASGSGTDFTLKISRVEAEDLGVYYCFQGSHVPPTFGSGTKLEIKRTVAAPSVFIFPPSDEQLKSGTASVVCLLNNFYPREAKVQWKVDNALQSGNSQESVTEQDSKDSTYSLSSTLTLSKADYEKHKVYACEVTHQGLSSPVTKSFNRGEC
In the case of B1, the “Binding to Peptide 2 (SEQ ID NO: 4) of Gal3” value (Human Gal3 peptides [1]) is reported as “bind” and the “Binding to Peptide 3 (SEQ ID NO: 5) of Gal3” value (Human Gal3 peptides [1]) is reported as “bind”.

B2: F847C.11B1: anti-Gal3 antibody (antibody)
heavy: EVQLQQSGPELVKPGASVKISCKASGNTFTDHNMHWVKQSHGKSLEWIGYIYPYNGGTGYNQKFKSKATLTVDNSSSTVYMELRSLTSEDSAVYYCARGEYDYLAWFAYWGQGTLVTVSAASTKGPSVFPLAPCSRSTSESTAALGCLVKDYFPEPVTVSWNSGALTSGVHTFPAVLQSSGLYSLSSVVTVPSSSLGTKTYTCNVDHKPSNTKVDKRV[letters of human IgG4 Fc with S228P (EU numbers) omitted]
light: EIVLTQSPASLSVTTGEKVTIRCITSIDIDDDMNWYQQKPGEPPKLLISEGNTLRPGVPSRFSSSGYGTDFVFTIENTLSEDVADYYCLQSDNKPLTFGAGTKLELKRTVAAPSVFIFPPSDEQLKSGTASVVCLLNNFYPREAKVQWKVDNALQSGNSQESVTEQDSKDSTYSLSSTLTLSKADYEKHKVYACEVTHQGLSSPVTKSFNRGEC
For B2, the “Binding to Peptide 17 (SEQ ID NO: 19) of Gal3” value (Human Gal3 peptides [2]) was “bind”.

B3: F846TC.14A2: anti-Gal3 antibody (antibody)
heavy: QIQLVQSGPELKKPGETVKISCKASGYTFTNYGMNWVKQAPGKGLKWMGWINTYTGEPTYAGDLKGRFAFSLETSASTAYLQINNLKNEDTATYFCVRYTMDYWGQGTSVTVSSASTKGPSVFPLAPCSRSTSESTAALGCLVKDYFPEPVTVSWNSGALTSGVHTFPAVLQSSGLYSLSSVVTVPSSSLGTKTYTCNVDHKPSNTKVDKRV[letters of human IgG4 Fc with S228P (EU numbers) omitted]
light: QAVVTQESALTTSPGETVTLTCRSSTGAVTTSNYANWVQEKPDHLFTGLIGGINNRVPGVPARFSGSLIGDKAALTITGAQTEDEAIYFCALWYSNHWVFGGGTKLTVLRTVAAPSVFIFPPSDEQLKSGTASVVCLLNNFYPREAKVQWKVDNALQSGNSQESVTEQDSKDSTYSLSSTLTLSKADYEKHKVYACEVTHQGLSSPVTKSFNRGEC
In the case of B3, the “Binding to Peptide 1 (SEQ ID NO: 3) of Gal3” value (Human Gal3 peptides [1]) is reported as “bind and bound”, the “Binding to Peptide 7 (SEQ ID NO: 9) of Gal3” value (Human Gal3 peptides [1]) is reported as “bind and bound” and the “Binding to Peptide 8 (SEQ ID NO: 10) of Gal3” value (Human Gal3 peptides [2]) is reported as “bind”.

B4: F846C.1B2: anti-Gal3 antibody (antibody)
heavy: QIQLVQSGPELKKPGETVKISCKASGYTFTNYGMNWVKQAPGKGLKWMGWINTYTGEPSYADDFKGRFAFSLETSASTAYLQINNLKNEDMATYFCARWGGYAGDYYAMDFWGQGTSVTVSSASTKGPSVFPLAPCSRSTSESTAALGCLVKDYFPEPVTVSWNSGALTSGVHTFPAVLQSSGLYSLSSVVTVPSSSLGTKTYTCNVDHKPSNTKVDKRV[letters of human IgG4 Fc with S228P (EU numbers) omitted]
light: NIWLTQSPSSLAVSAGEMVTMTCKSSQSVLYSSNQKNYLAWYQQKPGQSPKLLIYWASTRESGVPDRFTGSGSGTDFSLTISSVQAEDLAVYYCHQYLSSLTFGAGTKLELKRTVAAPSVFIFPPSDEQLKSGTASVVCLLNNFYPREAKVQWKVDNALQSGNSQESVTEQDSKDSTYSLSSTLTLSKADYEKHKVYACEVTHQGLSSPVTKSFNRGEC
In the case of B4, the “Binding to Peptide 5 (SEQ ID NO: 7) of Gal3” value (Human Gal3 peptides [1]) is reported as “bind”, the “Binding to Peptide 6 (SEQ ID NO: 8) of Gal3” value (Human Gal3 peptides [1]) is reported as “bind and bound” and the “Binding to Peptide 7 (SEQ ID NO: 9) of Gal3” value (Human Gal3 peptides [1]) is reported as “bind and bound”.

B5: F846C.2H3: anti-Gal3 antibody (antibody)
heavy: QIQLVQSGPELKKPGETVKISCKASGYTFTNYGMNWVKQAPGKGLKWMGWINTYTGEPSYADDFKGRFAFSLETSASTAYLQINNLKNEDMATYFCARWGGYDGDYYAMDYWGQGTSVTVSSASTKGPSVFPLAPCSRSTSESTAALGCLVKDYFPEPVTVSWNSGALTSGVHTFPAVLQSSGLYSLSSVVTVPSSSLGTKTYTCNVDHKPSNTKVDKRV[letters of human IgG4 Fc with S228P (EU numbers) omitted]
light: NIMMTQSPSSLAVSAGEKVTMSCKSSQSVLYSSNQKNYLAWYQQKPGQSPKLLIYWASTRESGVPDRFTGSGSGTDFTLTISSVQPEDLAVYYCHQYLSSLTFGAGTKLELKRTVAAPSVFIFPPSDEQLKSGTASVVCLLNNFYPREAKVQWKVDNALQSGNSQESVTEQDSKDSTYSLSSTLTLSKADYEKHKVYACEVTHQGLSSPVTKSFNRGEC
B5 was tested, and the “Binding to Peptide 6 (SEQ ID NO: 8) of Gal3” value (Human Gal3 peptides [1]) was “bind and bound”.

B6: F846C.1F5: anti-Gal3 antibody (antibody)
heavy: QIQLVQSGPELKKPGETVKISCKASGYTFTNYGMNWVKQAPGKGLKWMGWINTYTGEPSYADDFKGRFAFSLETSASTAYLQINNLKNEDMATYFCARWGGYDGDYYAMDYWGQGTSVTVSSASTKGPSVFPLAPCSRSTSESTAALGCLVKDYFPEPVTVSWNSGALTSGVHTFPAVLQSSGLYSLSSVVTVPSSSLGTKTYTCNVDHKPSNTKVDKRV[letters of human IgG4 Fc with S228P (EU numbers) omitted]
light: NIMMTQSPSSLAVSAGEKVTMSCKSSQSVLYSSNQKNYLAWYQQKPGQSPKLLIYWASTRESGVPDRFTGSGSGTDFTLTISSVQPEDLAVYYCHQYLSSLTFGAGTKLELKRTVAAPSVFIFPPSDEQLKSGTASVVCLLNNFYPREAKVQWKVDNALQSGNSQESVTEQDSKDSTYSLSSTLTLSKADYEKHKVYACEVTHQGLSSPVTKSFNRGEC
In the case of B6, the “Binding to Peptide 6 (SEQ ID NO: 8) of Gal3” value (Human Gal3 peptides [1]) is reported as “bind and bound” and the “Binding to Peptide 17 (SEQ ID NO: 19) of Gal3” value (Human Gal3 peptides [2]) is reported as “bind”.

B7: F846C.1H12: anti-Gal3 antibody (antibody)
heavy: QIQLVQSGPELKKPGETVKISCKASGYTFTNFGMNWVKQAPGKGLKWMGWINTYTGEPSYADDFKGRFAFSLETSASTAYLQINNLKNEDIATYFCARWGGYAGDYYAMDYWGQGTSVTVSSASTKGPSVFPLAPCSRSTSESTAALGCLVKDYFPEPVTVSWNSGALTSGVHTFPAVLQSSGLYSLSSVVTVPSSSLGTKTYTCNVDHKPSNTKVDKRV[letters of human IgG4 Fc with S228P (EU numbers) omitted]
light: NIMMTQSPSSLAVSAGQKVTMSCKSSQSVLYSSSQKNYLAWYQQKPGQSPKLLIYWASTRESGVPDRFSGSGSGTDFTLTISSVQPEDLAVYYCHQYLSSLTFGAGTKLELKRTVAAPSVFIFPPSDEQLKSGTASVVCLLNNFYPREAKVQWKVDNALQSGNSQESVTEQDSKDSTYSLSSTLTLSKADYEKHKVYACEVTHQGLSSPVTKSFNRGEC
For B7, the “Binding to Peptide 5 (SEQ ID NO: 7) of Gal3” value (Human Gal3 peptides [1]) was “bind”, the “Binding to Peptide 6 (SEQ ID NO: 8) of Gal3” value (Human Gal3 peptides [1]) was “bind and bound” and the “Binding to Peptide 17 (SEQ ID NO: 19) of Gal3” value (Human Gal3 peptides [2]) was “bind”.

B8: F849C.8H3: anti-Gal3 antibody (antibody)
heavy: QVTLKESGPGILQPSQTLSLTCSFSGFSLSTFGMGVGWIRQPSGKGLEWLAHIWWDDDKHYNPALKSRLTISKDTSKNQVFLRIANVDTADNATYYCARIDYGDYVGFAYWGQGTLVTVSAASTKGPSVFPLAPCSRSTSESTAALGCLVKDYFPEPVTVSWNSGALTSGVHTFPAVLQSSGLYSLSSVVTVPSSSLGTKTYTCNVDHKPSNTKVDKRV[letters of human IgG4 Fc with S228P (EU numbers) omitted]
light: DIGMRQAAFSNPVTLGTSASISCRSSKSLLYSNGITYLYWFLQKPGQSPQLLIYQMSNLASGVPDRFSSSGSGTDFTLRISRVEADDVGVYYCAQNLELPWTFGGGTKLEIKRTVAAPSVFIFPPSDEQLKSGTASVVCLLNNFYPREAKVQWKVDNALQSGNSQESVTEQDSKDSTYSLSSTLTLSKADYEKHKVYACEVTHQGLSSPVTKSFNRGEC
In the case of B8, the “Binding to Peptide 2 (SEQ ID NO: 4) of Gal3” value (Human Gal3 peptides [1]) is reported as “bind” and the “Binding to Peptide 17 (SEQ ID NO: 19) of Gal3” value (Human Gal3 peptides [2]) is reported as “bind”.
